Where “and” joins values, the source holds several entries; their conditions need not be identical. Equal values may be shown once. Hit rate of the full screen: of about 350,000 compounds, about 600 (0.17%) were called active. Inconclusive results, whose numbers are uncertain, are shown with a selection of clear calls.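 The calls were made as follows: active = every replicate shows inhibition of at least 40%; inconclusive = mean inhibition at least 40% but some replicate below; inactive = the rest.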
Assay: inhibitors of PGC1a acetylation signal, primary screen, cell-based, U2OS, AlphaScreen, inhibitor mode (AID 651687);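 also: 0% = neutral control wells and 100% = positive control wells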
Conditions: AlphaScreen anti-acetyl-lysine, at 15.6 µM, stronger effect = higher value, with virally co-expressed GCN5 acetyltransferase

| SMILES | inhibition |
| --- | --- |
| Cc1csc(SCC(=O)Nc2nc(-c3ccccc3)cs2)n1 | inactive: -0.492% |
| CN(C)C(=O)c1ccc(-c2ccc([C@H]3[C@H]4CN(C(=O)CC5CC5)CC(=O)N4[C@H]3CO)cc2)cc1 | inconclusive: 50.8% |
| COc1ccccc1C1c2c(C)nn(-c3ccccc3)c2NC(=O)C1NC(=O)c1ccccc1 (stereo unspecified) | inconclusive: 48.5% |
| Cc1cccc(-c2ccc(C3[C@@H]4CN(C(=O)Nc5ccc(C(F)(F)F)cc5)C[C@H]3N4)cc2)c1 (stereo partly specified) | active: 92.4% and active: 92.8% |
| CN1CCN2c3ncccc3Cc3ccccc3[C@@H]2C1 | inconclusive: 46% |
| CCC(C)NC(=O)c1ccc2c(SCC(=O)O)c3c(nc2c1)CCCC3 (stereo unspecified) | inconclusive: 41% |
| NS(=O)(=O)c1ccc(-c2ccc(/C=C3\C(=O)Nc4cc(Cl)ccc43)o2)cc1 | inconclusive: 48.6% |
| Nn1cnnc1N/N=C/c1ccc(Cl)c([N+](=O)[O-])c1 | inconclusive: 53.3% |
| N#Cc1cccc(NC(=O)COC(=O)c2ccccc2C(=O)c2ccc(Cl)c([N+](=O)[O-])c2)c1 | inconclusive: 46.9% |
| COc1ccc(S(=O)(=O)N(C)C[C@@H]2Oc3ccc(NC(=O)CCN4CCOCC4)cc3C(=O)N([C@H](C)CO)C[C@H]2C)cc1 | inconclusive: 50.1% |
| O=C(C1CC1)N1[C@H](CO)[C@@H]2c3ccccc3N(S(=O)(=O)c3ccccc3)C[C@@H]21 | inactive: 8.4% |
| Cc1cc(S(=O)(=O)NC(C)C)ccc1OCC(=O)Nc1ccc2c(c1)OCCO2 | active: 110% |
| CCOCCCNC(=O)C1CCN(C(=O)Nc2ccc(C)cc2)CC1 | inconclusive: 45.5% |
| COc1ccc(CN(C)C[C@@H]2Oc3ccc(NS(=O)(=O)c4c(C)noc4C)cc3C(=O)N([C@@H](C)CO)C[C@@H]2C)cc1 | inconclusive: 55.8% |
| C[C@H]1CN([C@@H](C)CO)S(=O)(=O)c2ccc(-c3cncnc3)cc2O[C@H]1CN(C)C(=O)CN(C)C | inconclusive: 52.9% |
| O=C(CCc1nc2ccccc2c(=O)[nH]1)OCC(=O)N1CCc2ccccc21 | inconclusive: 52.6% |
| Cc1ccc(CCC(=O)Nc2ccc(Cl)cc2)o1 | active: 71.7% |
| CN1OC(COC(=O)c2ccccc2)CC1c1ccccc1 (stereo unspecified) | inconclusive: 48.8% |
| CO[C@H]1CN(C)C(=O)c2cc(NS(C)(=O)=O)ccc2OC[C@H](C)N(C(=O)NC(C)C)C[C@H]1C | inconclusive: 48.5% |
| CCCCCCCOC(=O)c1nc(Cl)c(Cl)c(N)c1Cl | inactive: -10.2% |
| O=C(CSc1nnnn1-c1ccc(F)cc1)NNC(=O)c1ccco1 | inconclusive: 43.7% |
| O=c1oc(-c2ccccc2)nc2sc3c(c12)CCC3 | inconclusive: 42.4% |
| COCC(=O)Nc1ccc2c(c1)C(=O)N(C)[C@@H]1CC[C@H](CC(=O)NCc3cccc(F)c3)O[C@H]1CO2 | inactive: -1.11% |
| O=C(c1cc2ccccc2o1)c1cccs1 | inactive: 2.15% |
| O=C1Nc2ccccc2N=C(c2ccccc2)C1N(Cc1ccc(F)cc1)C(=O)c1cccnc1 (stereo unspecified) | active: 40.5% |
| Cc1ccc(C)c(S(=O)(=O)N(C(=O)c2ccncc2)c2ccc(OC(=O)c3ccncc3)cc2)c1 | active: 44.1% |

| SMILES | inhibition |
| --- | --- |
| O=C(N[C@@H]1CC[C@@H](CCNS(=O)(=O)c2ccccc2Cl)O[C@@H]1CO)c1ccc(F)cc1 | inconclusive: 48% |
| O=S(=O)(c1ccc(N2CCC(c3ccc(Cl)cc3)=N2)cc1)N(CCO)CCO | inconclusive: 42.6% |
| COc1ccc(S(=O)(=O)N2CCC(C(=O)N3CCC(C(N)=O)CC3)CC2)cc1Cl | inconclusive: 43.8% |
| O=P(COCCOCCOCCOCP(=O)(c1ccccc1)c1ccccc1)(c1ccccc1)c1ccccc1 | inconclusive: 44.3% |
| FC(F)(F)c1ccc(Cl)c(-n2c(-c3cc(-c4ccco4)[nH]n3)n[nH]c2=S)c1 | inconclusive: 43.5% |
| C=CS(=O)(=O)N(Cc1ccccc1Br)[C@H](CO)Cc1ccccc1 | inconclusive: 44.1% |
| CCC(=O)Nc1ccc2c(c1)C(=O)N(C)[C@@H]1CC[C@H](CC(=O)Nc3cccc(OC)c3)O[C@@H]1CO2 | inactive: 4.25% |
| CN1C(C(=O)Nc2ccccn2)=C(O)c2sc(Cl)cc2S1(=O)=O | inconclusive: 53.2% |
| CCCCOc1ccc(/C=C/C(=O)OCC(=O)c2c(N)n(C)c(=O)n(C)c2=O)cc1OCC | inconclusive: 46.8% |
| Cc1cc(C)c(S(=O)(=O)NCC2CCC(C(=O)NCc3ccc4c(c3)OCO4)CC2)c(C)c1 (stereo unspecified) | inconclusive: 43.2% |
| O=C(Nc1ccc2c(c1)C(=O)N(c1ccccc1)C2=O)c1cccs1 | inconclusive: 52.7% |
| C[C@@H]1CN([C@@H](C)CO)S(=O)(=O)c2ccc(-c3cccc(C#N)c3)cc2O[C@@H]1CN(C)C(=O)Nc1cc(F)ccc1F | inactive: 20.6% |
| Cc1ccc(Cl)c(Cn2cnc3c(cnn3C(C)(C)C)c2=O)c1F | inconclusive: 47.8% |
| CS(=O)(=O)Nc1ccc2c(c1)[C@@H]1C[C@H](CC(=O)N3CCc4ccccc4C3)O[C@@H](CO)[C@@H]1O2 | inconclusive: 40.7% |
| Cc1ccc2c(Cl)cc(Cl)c(OCc3c(C)noc3C)c2n1 | inconclusive: 44.6% |
| CC1=Nc2ccccc2N=C(NC(=O)CN2CCN(c3ccccc3)CC2)C1c1ccccc1 (stereo unspecified) | active: 86.1% |
| CC(C)C#Cc1ccc2c(c1)O[C@@H](CN(C)Cc1ccccc1)[C@@H](C)CN([C@@H](C)CO)S2(=O)=O | active: 98.6% |
| N#C/C(=C(/O)COC(=O)c1cccnc1Cl)c1nc2ccccc2[nH]1 | inactive: 3.91% |
| COc1ccc(-c2csc(N(CCCN(C)C)C(=O)c3cccs3)n2)cc1 | inconclusive: 46.1% |
| CC(C)NC(=O)N(C)C[C@H]1Oc2cc(C#CC(C)(C)O)ccc2S(=O)(=O)N([C@H](C)CO)C[C@@H]1C | inactive: 12.9% |
| CCOc1ccc(C(C)=O)cc1N1C(=O)C2C3C=CC(C3=C(C)C)C2C1=O (stereo unspecified) | inconclusive: 43.5% |
| C/C=C/c1ccc([C@H]2[C@@H](CO)N(S(C)(=O)=O)[C@@H]2CN(CC)C(=O)CC)cc1 | inactive: -2.6% |
| COc1cccc(-c2ccc([C@H]3[C@@H](CO)N(C(=O)Cc4ccccc4)[C@H]3C#N)cc2)c1 | inactive: -13.7% |
| Cc1ccccc1N1C(N)=NC(N)=NC1(C)C | inactive: -4.46% |
| C[C@@H]1CN([C@@H](C)CO)C(=O)Cc2cc(NS(=O)(=O)c3ccc(Cl)cc3)ccc2O[C@H]1CN(C)Cc1ccc(Oc2ccccc2)cc1 | inactive: -7.31% |
| COc1ccc(NC(=O)Nc2ccc3c(c2)C(=O)N([C@H](C)CO)C[C@H](C)[C@@H](CN(C)S(=O)(=O)c2ccc(Cl)cc2)O3)cc1 | inconclusive: 40.4% |

| SMILES | inhibition |
| --- | --- |
| COc1ccc(NC(=O)/C(Cl)=C(/Cl)S(=O)Cc2ccc(C)cc2)cn1 (stereo unspecified) | active: 69.3% |
| C[C@@H]1CN([C@H](C)CO)C(=O)Cc2cc(NS(=O)(=O)c3ccc(F)cc3)ccc2O[C@H]1CN(C)C(=O)Nc1ccc2c(c1)OCO2 | inactive: 1.56% |
| O=S(=O)(c1ccc(Cl)cc1)c1snnc1-c1ccccc1 | active: 41.8% |
| C[C@H](CO)N1C[C@H](C)[C@@H](CN(C)Cc2ccc(C(F)(F)F)cc2)OCc2cnnn2CCCC1=O | inconclusive: 54.6% |
| O=C(CCS(=O)(=O)c1ccccc1)NCCS(=O)(=O)c1ccccc1 | inactive: 3.3% |
| Cc1ccc(S(=O)(=O)OCCC2=CC(=O)CCN2Cc2ccccc2)cc1 | active: 63.2% |
| CC(C)NC(=O)N(C)C[C@H]1Oc2ccc(NC(=O)Nc3ccc(F)cc3)cc2CC(=O)N([C@H](C)CO)C[C@@H]1C | inactive: 0.646% |
| CCOc1ccc2nc(NCCNC(=O)Nc3ccccc3)c(C#N)cc2c1 | active: 64.2% |
| Cc1ccc(NC(=O)c2c(C)nn(-c3ccccc3)c2Cl)c(C)c1 | inconclusive: 41.3% |
| O=C1C(Cl)=C(Nc2ccc3cn[nH]c3c2)C(=O)c2ccccc21 | active: 54.7% |
| C[C@H]1CN([C@@H](C)CO)C(=O)c2cc(-c3cccc(C(=O)N(C)C)c3)cnc2O[C@@H]1CN(C)S(=O)(=O)c1ccc(F)cc1 | inconclusive: 21.4% |
| CNC[C@@H]1Oc2cc(-c3cccnc3)ccc2S(=O)(=O)N([C@H](C)CO)C[C@H]1C | inactive: 7.96% |
| COc1ccc(NC(=O)N[C@@H]2CC[C@H](CCn3cc(-c4ccccc4F)nn3)O[C@@H]2CO)cc1 | inconclusive: 48.3% |
| COc1cccc(NC(=O)CN(C)C(=O)CNC(=O)c2ccccc2F)c1 | inconclusive: 44.8% |
| Cc1ccc(CN=c2c([N+](=O)[O-])nn(-c3cccc(Cl)c3)n2O)cc1 | inactive: 2.63% |
| Cc1ccc(S(=O)(=O)N[C@@H]2C=C[C@H](CC(=O)NCCN3CCCCC3)O[C@@H]2CO)cc1 | inconclusive: 57.8% |
| CC(C)n1c(=S)[nH]c2cc(Cl)ccc21 | active: 69.1% |
| O=C(Cn1c(CN2CCCCC2)nc2ccccc2c1=O)Nc1ccccc1 | inconclusive: 49.8% |
| CCS(=O)(=O)c1ccc(O)c(NC(=O)COc2ccc(Br)cc2)c1 | active: 96.8% |
| Cc1ccc(S(=O)(=O)N[C@H]2C=C[C@@H](CC(=O)NCCN3CCCCC3)O[C@H]2CO)cc1 | active: 105% |
| O=C(c1ccccc1)c1cnc[nH]1 | inactive: -2.4% |
| CCC(=O)N1C[C@H](C)[C@H](OC)CN(C)C(=O)c2cc(NC(=O)c3cc(C)on3)ccc2OC[C@@H]1C | inactive: 20.6% |
| O=C(CCSc1nnc(-c2ccc(O)cc2)o1)N1CCOCC1 | inconclusive: 45.7% |
| c1csc(CNc2ncnc3ccc(-c4ccoc4)cc23)c1 | active: 50.4% |
